Measured values: PMC10323441
No constants are given. Whether binding was seen depends on the method and setting. In cells and extracts the contact can be indirect. Some entries that bind do so weakly or less than the wild type. Sequences can lack the tags named with a protein. Blank lines part the entries; values can stand above or below the binder they belong to.

Chains of the proteins cited; added tags and fusions are not shown.
UniProt O75838: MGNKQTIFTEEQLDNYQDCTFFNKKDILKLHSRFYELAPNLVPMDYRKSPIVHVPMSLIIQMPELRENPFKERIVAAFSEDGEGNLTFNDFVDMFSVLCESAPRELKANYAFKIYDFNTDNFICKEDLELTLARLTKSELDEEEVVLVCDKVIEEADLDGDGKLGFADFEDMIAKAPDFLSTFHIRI
UniProt Q12798: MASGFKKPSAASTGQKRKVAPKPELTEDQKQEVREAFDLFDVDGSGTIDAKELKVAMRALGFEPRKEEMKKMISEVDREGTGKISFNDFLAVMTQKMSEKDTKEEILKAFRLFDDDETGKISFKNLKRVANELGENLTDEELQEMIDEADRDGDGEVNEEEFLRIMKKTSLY

How the values were obtained:
[1] = target: T1, FLAG-myc-tagged CCT3 (human (from the printed UniProt entry)) (UniProt P49368); assay: co-IP; anti-FLAG M2 beads hold FLAG-myc-CCT3; lysates of co-expressing HEK293T cells in TAP lysis buffer; 1 h at 4°C; Western blot with antibodies against FLAG and HA
T1 sequence: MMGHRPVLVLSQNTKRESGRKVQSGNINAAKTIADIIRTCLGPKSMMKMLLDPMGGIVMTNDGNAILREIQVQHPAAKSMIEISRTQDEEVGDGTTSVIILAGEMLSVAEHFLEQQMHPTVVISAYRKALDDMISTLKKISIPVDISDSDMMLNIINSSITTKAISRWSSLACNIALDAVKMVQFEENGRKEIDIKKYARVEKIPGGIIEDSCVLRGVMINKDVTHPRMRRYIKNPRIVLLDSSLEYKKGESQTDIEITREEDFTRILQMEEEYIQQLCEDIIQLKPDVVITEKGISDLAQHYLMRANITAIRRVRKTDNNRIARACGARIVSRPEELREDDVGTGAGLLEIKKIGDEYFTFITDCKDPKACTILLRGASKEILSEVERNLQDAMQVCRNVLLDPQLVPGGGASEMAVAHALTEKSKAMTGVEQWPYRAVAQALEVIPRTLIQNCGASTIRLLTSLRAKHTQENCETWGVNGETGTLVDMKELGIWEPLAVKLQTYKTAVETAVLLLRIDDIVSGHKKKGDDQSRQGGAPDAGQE

[2] = target: RFP-tagged CIB2 (mRFP-CIB2) (human (from the printed UniProt entry)) (UniProt O75838); assay: co-IP; RFP-Trap agarose beads; lysates of co-transfected HEK293T cells (RFP-tagged protein or RFP alone with HA- or SF-tagged protein); 10 mM Tris-Cl pH 7.5, 150 mM NaCl, 0.5 mM EDTA; 2 h at 4°C; Western blot
[3] = target: T2, 3xHA-tagged C-terminal fragment of ADGRV1 (3xHA-ADGRV1_CTF) (human) (UniProt Q8WXG9); assay: co-IP; reciprocal: anti-HA agarose beads hold the 3xHA-tagged protein; lysates of co-expressing HEK293T cells; Western blot
T2 sequence: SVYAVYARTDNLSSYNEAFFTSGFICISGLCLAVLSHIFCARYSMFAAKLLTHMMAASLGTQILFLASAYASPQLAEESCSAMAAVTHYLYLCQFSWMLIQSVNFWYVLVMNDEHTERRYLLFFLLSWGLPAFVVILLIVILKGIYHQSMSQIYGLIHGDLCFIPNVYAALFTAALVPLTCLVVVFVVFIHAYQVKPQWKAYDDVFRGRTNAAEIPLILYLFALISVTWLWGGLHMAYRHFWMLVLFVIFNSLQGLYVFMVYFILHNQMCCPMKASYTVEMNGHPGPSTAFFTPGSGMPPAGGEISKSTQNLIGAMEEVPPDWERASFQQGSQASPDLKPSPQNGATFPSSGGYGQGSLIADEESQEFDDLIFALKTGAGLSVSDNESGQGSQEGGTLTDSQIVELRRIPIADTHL

3xHA-tagged centrin 1 = 3xHA-tagged centrin 1 (UniProt Q12798); assay: as above
[4] = target: T3, 3xHA-tagged intracellular domain of ADGRV1 (ADGRV1_ICD) (human) (UniProt Q8WXG9); assay: as above
T3 sequence: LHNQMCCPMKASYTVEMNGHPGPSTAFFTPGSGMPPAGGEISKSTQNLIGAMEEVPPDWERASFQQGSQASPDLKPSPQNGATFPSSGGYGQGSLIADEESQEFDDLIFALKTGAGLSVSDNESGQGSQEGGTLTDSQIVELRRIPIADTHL

binding [1]: no binding
B1: 3xHA-tagged intracellular domain of ADGRV1 (ADGRV1_ICD) (domain or fragment, UniProt Q8WXG9-1 6155-6306)
chain: T3 sequence

binding [1]: binds
binding [2]: binds
B2: 3xHA-tagged C-terminal fragment of ADGRV1 (3xHA-ADGRV1_CTF) (domain or fragment, UniProt Q8WXG9-1 5891-6306)
chain: T2 sequence

binding [3]: binds
binding (3xHA-tagged centrin 1): no binding
binding [4]: no binding
B3: FLAG-myc-tagged CCT3 (protein, UniProt P49368-1 1-545)
chain: T1 sequence
